# ± gives the uncertainty stated by the source. In all, about 9,900 compounds were measured (“viability index relative to DMSO control”: median about 1, lowest 2% from about 0.85 on). The list shows a part of the results.
# System: Plasmodium falciparum NF54 stage V gametocytes
# Experiment: viability index relative to DMSO control (fraction); higher = less gametocyte killing
# Conditions: 2.5 µM, library set: Broad Institute DOS, incubation time: 72 h
# Experimental: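 Broad DOS informer set and blood-stage-active DOS compounds screened in duplicate at 2.5 µM against P. falciparum NF54 stage V gametocytes with the serum-free one-step SaLSSA (1536-well): 72 h at 37 °C under low oxygen, then saponin lysis and MitoTracker Red CMXRos staining, with high-content imaging. Viability index = viable-object count divided by the plate mean of DMSO wells (0 = killed, about 1 = inactive).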
row,Structure (SMILES),viability index
1,C[C@H](NC(=O)C[C@@H]1C[C@H]2c3cc(NS(=O)(=O)c4ccc(F)cc4)ccc3O[C@H]2[C@@H](CO)O1)c1ccccc1,1.083 ± 0.0022
2,C[C@@H]1CN([C@@H](C)CO)S(=O)(=O)c2ccc(-c3ccncc3)cc2O[C@H]1CN(C)S(C)(=O)=O,0.934 ± 0.054
3,CCC(=O)N1C[C@@]2(C1)CN(Cc1cccc(Cl)c1)[C@H](CO)c1[nH]c3cc(OC)ccc3c21,1.01 ± 0.033
4,Cc1ccc(S(=O)(=O)N2CC[C@@H]3[C@@H](CO)Nc4ccc(-c5cccc(C(=O)N(C)C)c5)cc4[C@@H]32)cc1,0.837 ± 0.012
5,COCCNC[C@H]1[C@H](c2ccccc2)[C@H](CO)N1c1nc(C)c(C)s1,0.97 ± 0.012
6,CCNC(=O)C[C@@H]1CC[C@@H]2[C@H](COC[C@@H](O)CN2C(=O)c2ccccn2)O1,1.065 ± 0.0067
7,OC[C@@H]1[C@@H]2c3ccccc3NC[C@@H]2N1CC1CCOCC1,1.02 ± 0.058
8,CN1C(=O)c2cc(NC(=O)c3cscn3)ccc2OC[C@H]2O[C@H](CC(=O)NCc3ccc(Cl)c(Cl)c3)CC[C@@H]21,1.02 ± 0.095
9,CCCNC(=O)N1C[C@H](O)COC[C@H]2O[C@H](CC(=O)OC)CC[C@@H]21,1.105 ± 0.0098
10,COCC(=O)Nc1ccc2c(c1)OC[C@H](C)N(C)C[C@@H](C)[C@H](OC)CN(C)C2=O,0.9536 ± 0.0082
11,CCC(=O)N[C@@H]1CC[C@H](CC(=O)NCc2ccccc2F)O[C@@H]1CO,1.05 ± 0.13
12,COc1cccc(C#Cc2ccc([C@@H]3[C@@H](CO)N(C(=O)c4ccccn4)[C@H]3C#N)cc2)c1,1.012 ± 0.0077
13,O=C(c1cccnc1)N1CC(=O)N2[C@@H](CO)[C@H](c3ccc(-c4ccccc4F)cc3)[C@@H]2C1,1 ± 0.039
14,C[C@@H]1CN([C@@H](C)CO)C(=O)c2cc(-c3ccc(C#N)cc3)cnc2O[C@H]1CN(C)Cc1cccnc1,1.06 ± 0.056
15,O=C(C[C@@H]1CC[C@@H](NC(=O)Nc2ccc(C(F)(F)F)cc2)[C@@H](CO)O1)NCc1cccc(F)c1,1.134 ± 0.011
16,CCCC#Cc1cnc2c(c1)C(=O)N([C@@H](C)CO)C[C@@H](C)[C@H](CN(C)C(=O)Nc1cc(F)ccc1F)O2,1.05 ± 0.041
17,C[C@H](CO)N1C[C@H](C)[C@H](CN(C)C(=O)NC2CCCC2)Oc2cc(-c3cncnc3)ccc2S1(=O)=O,0.976 ± 0.11
18,COc1ccc2c3c([C@@H](CO)N(C)C[C@]33CN(CC4CC4)C3)n(C)c2c1,1.04 ± 0.048
19,CN1C(=O)c2cc(NC(=O)c3cccc(Cl)c3)ccc2OC[C@H]2O[C@H](CC(=O)NC3CCCCC3)CC[C@@H]21,1.11 ± 0.11
20,CO[C@@H]1CN(C)C(=O)c2ccc(NC(=O)C3CCC3)cc2OC[C@H](C)N(Cc2ccccn2)C[C@H]1C,1.08 ± 0.046
21,C/C=C/c1ccc([C@@H]2[C@@H](CN(C)C(C)=O)N(C(=O)NC(C)C)[C@H]2CO)cc1,1.06 ± 0.016
22,CNC(=O)C[C@@H]1CC[C@H]2[C@H](COc3ccc(NC(=O)c4ccccc4F)cc3C(=O)N2C)O1,1.15 ± 0.059
23,C[C@@H]1CCCCO[C@@H](CN(C)C(=O)C2CCCCC2)[C@@H](C)CN([C@@H](C)CO)C(=O)c2cc(NS(=O)(=O)c3ccccc3)ccc2O1,1.08 ± 0.023

row,Structure (SMILES),viability index
1,O=C(NC1CCCC1)[C@@H]1[C@@H](CO)[C@@H]2Cn3c(ccc(C4=CCCCC4)c3=O)[C@H]1N2CC1CC1,1.08 ± 0.043
2,CO[C@H]1CN(C)C(=O)c2cc(NS(=O)(=O)c3cccc(Cl)c3)ccc2OC[C@@H](C)NC[C@H]1C,1.1 ± 0.053
3,O=C(C[C@H]1CC[C@H]2[C@@H](COC[C@H](O)CN2C(=O)c2ccncc2)O1)NCc1cc(F)cc(F)c1,1.03 ± 0.051
4,CCCNC(=O)N1CC(=O)N2[C@H](CO)[C@H](c3ccc(C#CCC4CCCC4)cc3)[C@@H]2C1,0.986 ± 0.031
5,Cc1noc(C)c1S(=O)(=O)N(C)C[C@H]1OCc2cnnn2CCCC(=O)N([C@H](C)CO)C[C@@H]1C,1.04 ± 0.05
6,COCC(=O)N1CC[C@@]2(CC1)CN([C@H](CO)c1c2c2ccc(OC)cc2n1C)C(=O)c1ccccn1,1.03 ± 0.18
7,O=C(C[C@H]1CC[C@@H](NC(=O)C2CCOCC2)[C@H](CO)O1)NCC1CCCCC1,1.03 ± 0.091
8,C[C@@H]1CN([C@H](C)CO)C(=O)CCCn2cc(nn2)CO[C@@H]1CN(C)C(=O)Nc1ccc2c(c1)OCO2,1.046 ± 0.0089
9,COc1ccccc1CN1[C@@H]2CNC[C@H]1[C@@H]2c1ccc(-c2cccnc2)cc1,1.09 ± 0.1
10,CS(=O)(=O)N1Cc2cc(C(=O)NCC3CC3)nc(-c3cccc(-c4cncnc4)c3)c2[C@H]1CCO,1.046 ± 0.0077
11,O=C(Nc1cc(F)ccc1F)N1CC(=O)N2[C@H](CO)[C@@H](c3ccc(/C=C/c4ccccc4)cc3)[C@H]2C1,1.08 ± 0.048
12,CCS(=O)(=O)Nc1ccc2c(c1)C(=O)N(C)[C@@H]1CC[C@@H](CC(=O)N[C@H]3CCN(Cc4ccccc4)C3)O[C@H]1CO2,1.12 ± 0.038
13,COc1ccccc1-c1ccc([C@H]2[C@@H]3CN(Cc4cccc(F)c4)C[C@H]2N3)cc1,1.02 ± 0.084
14,O=C(Nc1ccccc1F)N[C@H]1CC[C@H](CCNC(=O)C2CC2)O[C@@H]1CO,1.06 ± 0.055
15,CN1C(=O)c2cc(NC(=O)c3cnccn3)ccc2OC[C@H]2O[C@@H](CC(=O)N[C@H]3CCN(Cc4ccccc4)C3)CC[C@@H]21,0.9678 ± 0.0058
16,CO[C@@H]1CN(C)C(=O)c2ccc(NS(=O)(=O)c3cccc(Cl)c3)cc2OC[C@@H](C)N(C(=O)Cc2cccnc2)C[C@H]1C,1.06 ± 0.14
17,CCCNC(=O)N1C[C@@H]2N[C@H](C1)[C@H]2c1ccc(-c2cccc(F)c2)cc1,1.02 ± 0.052
18,C[C@@H]1CN([C@@H](C)CO)C(=O)c2cc(NC(=O)Nc3cccc4ccccc34)ccc2O[C@@H](C)CCCCO[C@H]1CN(C)Cc1ccc(C(F)(F)F)cc1,1.08 ± 0.23
19,C[C@@H]1CCCCO[C@@H](CN(C)S(=O)(=O)c2cn(C)cn2)[C@@H](C)CN([C@H](C)CO)C(=O)c2cc(N(C)C)ccc2O1,1.1 ± 0.072
20,CN(C)C(=O)C[C@H]1C[C@@H]2c3cc(NC(=O)Nc4ccc(F)cc4)ccc3O[C@@H]2[C@@H](CO)O1,1.089 ± 0.0089
21,CS(=O)(=O)N1[C@H](C#N)[C@H](c2ccc(-c3ccccc3F)cc2)[C@@H]1CO,1.141 ± 0.002
22,O=C(O)C[C@@H]1C[C@H]2c3cc(NC(=O)Nc4ccc(C(F)(F)F)cc4)ccc3O[C@H]2[C@@H](CO)O1,1.037 ± 0.0066
23,C[C@H](CO)N1C[C@H](C)[C@H](CN(C)Cc2ccc(C(F)(F)F)cc2)OCCCC[C@H](C)Oc2ccc(NC(=O)Nc3cccc4ccccc34)cc2C1=O,1.15 ± 0.076

# Source: the supplement of paper PMC4723716
